Laboratory results as given in patent US20250127169A1, “PLANTS HAVING INCREASED TOLERANCE TO HERBICIDES” (BASF Agricultural Solutions Seed US LLC, priority 2021, published 2025).

Tests used:
Type in all cases: in vivo
[1] = test system: Transgenic T2 or T4 Soybean plants harbouring PPO inhibitor tolerance trait (L397E + F420M); details: post, 3DAT, single plants
Method: (§1) Soybean cv Jake is transformed as previously described by Siminszky et al., Phytochem Rev. 5:445-458 (2006). After regeneration, transformants are transplanted to soil in small pots, placed in growth chambers (16 hr day/8 hr night; 25° C. day/23° C. night; 65% relative humidity; 130-150 microE m-2 s-1) and subsequently tested for the presence of the T-DNA via Taqman analysis. After a few weeks, healthy, transgenic positive, single copy events are transplanted to larger pots and allowed to grow in the growth chamber. An optimal shoot for cutting is about 3-4 inches tall, with at least two nodes present. Each cutting is taken from the original transformant (mother plant) and dipped into rooting hormone powder (indole-3-butyric acid, IBA). The cutting is then placed in oasis wedges inside a bio-dome. The mother plant is taken to maturity in the greenhouse and harvested for seed. Wild type cuttings are also taken simultaneously to serve as negative controls. The cuttings are kept in the bio-dome for 5-7 days and then transplanted to 3 inch pots and then acclimated in the growth chamber for two more days. Subsequently, the cuttings are transferred to the greenhouse, acclimated for approximately 4 days prior to spray. T0 or 2-week old T1 plants are sprayed with a treatment of the phenyluracils as disclosed SUPRA and optionally photosynthesis inhibitor diuron as negative control. Herbicide injury evaluations are taken at 2, 7, 14 and 21 days after treatment.
(§2) Evaluation performed 3 Days After Treatment (DAT) and 1 Week after Treatment (WAT) and shown as injury (0-9) relative to non-transgenic treated plants. Injury Scale: 0-9, 0=no injury, 9=maximum injury. Note: segregating lines.
(§3) The following gives a definition of the injury scores measured above: • Score Description of injury • 0 No Injury • 1 Minimal injury, only a few patches of leaf injury or chlorosis. • 2 Minimal injury with slightly stronger chlorosis. Overall growth points remain undamaged. • 3 Slightly stronger injury on secondary leaf tissue, but primary leaf and growth points are still undamaged. • 4 Overall plant morphology is slightly different, some chlorosis and necrosis in secondary growth points and leaf tissue. Stems are intact. Regrowth is highly probable within 1 week. • 5 Overall plant morphology is clearly different, some chlorosis and necrosis on a few leaves and growth points, but primary growth point is intact. Stem tissue is still green. Regrowth is highly probably within 1 week. • 6 Strong injury can be seen on the new leaflet growth. Plant has a high probability to survive only through regrowth at different growth points. Most of the leaves are chlorotic/necrotic but stem tissue is still green. May have regrowth but with noticeable injured appearance. • 7 Most of the active growth points are necrotic. There may be a single growth point that could survive and may be partially chlorotic or green and partially necrotic. Two leaves may still be chlorotic with some green; the rest of the plant including stem is necrotic. • 8 Plant will likely die, and all growth points are necrotic. One leaf may still be chlorotic with some green. The remainder of the plant is necrotic. • 9 Plant is dead.

[2] = test system: Transgenic T2 or T4 Soybean plants harbouring PPO inhibitor tolerance trait (L397E + F420V); details: post, single plants
Method: as §1, §2, §3

[3] = test system: Transgenic T2 or T4 Soybean plants harbouring PPO inhibitor tolerance trait (L397Q + F420M); details: post, single plants
Method: as §1, §2, §3

## COC(=O)C(OC)Oc1ccccc1Oc1cc(-n2c(=O)cc(C(F)(F)F)n(C)c2=O)c(F)cc1Br (stereo not drawn) [Phenyluracil No. 1]
[1]; soybean RTP10052 RAEYOR L397E + F420M, 25 g/ha + 1% MSO
  injury (0-9): 0 (No Injury)
[1]; soybean RTP10052 RAEYOR L397E + F420M, 50 g/ha + 1% MSO
  injury (0-9): 1 (Minimal injury, only a few patches of leaf injury or chlorosis.)
[1]; soybean RTP10052 RAEZOR L397E + F420M, 25 g/ha + 1% MSO
  injury (0-9): 0 (No Injury)
[1]; soybean RTP10052 RAEZOR L397E + F420M, 50 g/ha + 1% MSO
  injury (0-9): 0 (No Injury)
[2]; soybean RTP10050 RAEYDZ L397E + F420V, 25 g/ha + 1% MSO, 1WAT
  injury (0-9): 0 (No Injury)
[2]; soybean RTP10050 RAEYDZ L397E + F420V, 25 g/ha + 1% MSO, 3DAT
  injury (0-9): 0 (No Injury)
[2]; soybean RTP10050 RAFANZ L397E + F420V, 25 g/ha + 1% MSO, 1WAT
  injury (0-9): 0 (No Injury)
[2]; soybean RTP10050 RAFANZ L397E + F420V, 100 g/ha + 1% MSO, 1WAT
  injury (0-9): 0 (No Injury)
[2]; soybean RTP10050 RAFANZ L397E + F420V, 100 g/ha + 1% MSO, 3DAT
  injury (0-9): 1 (Minimal injury, only a few patches of leaf injury or chlorosis.)
[3]; soybean RTP10053 RAEWGZ L397Q + F420M, 50 g/ha + 1% MSO, 1WAT
  injury (0-9): 0 (No Injury)
[3]; soybean RTP10053 RAEWGZ L397Q + F420M, 100 g/ha + 1% MSO, 1WAT
  injury (0-9): 1 (Minimal injury, only a few patches of leaf injury or chlorosis.) and 2
[3]; soybean RTP10053 RAEWGZ L397Q + F420M, 100 g/ha + 1% MSO, 3DAT
  injury (0-9): 1 (Minimal injury, only a few patches of leaf injury or chlorosis.) and 2
[3]; soybean RTP10053 RAEWHA L397Q + F420M, 100 g/ha + 1% MSO, 1WAT
  injury (0-9): 1 (Minimal injury, only a few patches of leaf injury or chlorosis.) and 2
[3]; soybean RTP10053 RAEWHA L397Q + F420M, 100 g/ha + 1% MSO, 3DAT
  injury (0-9): 2 and 1 (Minimal injury, only a few patches of leaf injury or chlorosis.)
[3]; soybean RTP20031 RBGRKB L397Q + F420M, 25 g/ha + 1% MSO, 1WAT
  injury (0-9): 1 (Minimal injury, only a few patches of leaf injury or chlorosis.)
[3]; soybean RTP20031 RBGRKB L397Q + F420M, 25 g/ha + 1% MSO, 3DAT
  injury (0-9): 2 and 1 (Minimal injury, only a few patches of leaf injury or chlorosis.)
[3]; soybean RTP20031 RBGRKB L397Q + F420M, 50 g/ha + 1% MSO, 1WAT
  injury (0-9): 2 and 1 (Minimal injury, only a few patches of leaf injury or chlorosis.)
[3]; soybean RTP20031 RBGRKB L397Q + F420M, 50 g/ha + 1% MSO, 3DAT
  injury (0-9): 3 and 2
[3]; soybean RTP20031 RBGRKB L397Q + F420M, 100 g/ha + 1% MSO, 1WAT
  injury (0-9): 2 and 4 and 3
[3]; soybean RTP20031 RBGRKB L397Q + F420M, 100 g/ha + 1% MSO, 3DAT
  injury (0-9): 2 and 4 and 3
[3]; soybean RTP20031 RBGRTK L397Q + F420M, 50 g/ha + 1% MSO, 1WAT
  injury (0-9): 1 (Minimal injury, only a few patches of leaf injury or chlorosis.) and 2
[3]; soybean RTP20031 RBGRTK L397Q + F420M, 50 g/ha + 1% MSO, 3DAT
  injury (0-9): 1 (Minimal injury, only a few patches of leaf injury or chlorosis.) and 2
[3]; soybean RTP20031 RBGRTK L397Q + F420M, 100 g/ha + 1% MSO, 1WAT
  injury (0-9): 3 and 4
[3]; soybean RTP20031 RBGRTK L397Q + F420M, 100 g/ha + 1% MSO, 3DAT
  injury (0-9): 3 and 4
[3]; soybean RTP20032 RBHRVN L397Q + F420M, 50 g/ha + 1% MSO, 1WAT
  injury (0-9): 1 (Minimal injury, only a few patches of leaf injury or chlorosis.)
[3]; soybean RTP20032 RBHRVN L397Q + F420M, 50 g/ha + 1% MSO, 3DAT
  injury (0-9): 2 and 1 (Minimal injury, only a few patches of leaf injury or chlorosis.)
[3]; soybean RTP20032 RBHRVN L397Q + F420M, 100 g/ha + 1% MSO, 3DAT
  injury (0-9): 3 and 4 and 2
[3]; soybean RTP20032 RBHSKR L397Q + F420M, 50 g/ha + 1% MSO, 1WAT
  injury (0-9): 1 (Minimal injury, only a few patches of leaf injury or chlorosis.) and 2
[3]; soybean RTP20032 RBHSKR L397Q + F420M, 100 g/ha + 1% MSO, 1WAT
  injury (0-9): 3
[3]; soybean RTP20032 RBHSKR L397Q + F420M, 100 g/ha + 1% MSO, 3DAT
  injury (0-9): 3

“And” between values parts separate entries of the source, which are not always exact repeats. Equal values may be shown once. Read-outs that look alike come from different tables or passages of the source.
